Out of some 420,000 compounds screened, about 64,000 (15%) were called active. Inconclusive results, whose numbers are uncertain, are shown with a selection of clear calls. Calls follow the shape of the dose curve; as a rule, active = well fitted inhibition curve with a large enough effect; inconclusive = small, poorly fitted or top-dose-only effect; inactive = flat fitted curve, though single readings scatter. Potencies of inconclusive entries are left out as doubtful fits.
Assay: qHTS for Inhibitors of human tyrosyl-DNA phosphodiesterase 1 (TDP1): qHTS in cells in absence of CPT; also: nearly all actives have a fitted effect of over 55% in size
Conditions: DT40 Tdp1-/- hTDP1 cells, no CPT, ATP luminescence, 48 h; activity change, negative = growth inhibition: at 46.2 µM (top of the series)
Outline: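 Cells were dispensed at 400 per well, compounds added by pin tool, plates incubated ≥48 hr at 37 °C, then CellTiter-Glo added for 30 min at room temperature before luminescence reading. Line: DT40 Tdp1-/- complemented with hTDP1; camptothecin omitted.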
% is scaled to controls: 0 for no effect and ±100 for the full control effect; potency is read from the fitted curve at half-maximal effect; tags tell the direction and shape of the fitted curve.

SMILES	Potency	activity change, negative = growth inhibition
CCC(C)[C@H](NS(=O)(=O)c1ccc(C)cc1)C(=O)N1CCC(C(=O)N2CCC(C(=O)OC)CC2)CC1 (some centres undefined)	inactive	
CSCCC(NS(=O)(=O)c1ccc2c(c1)oc(=O)n2C)C(=O)Nc1ccc(F)c(Cl)c1 (centres undefined)	inconclusive [inhibitor, single point]	
CCc1ccc(OCc2ccc(C(=O)NCc3ccccn3)o2)cc1		inconclusive: -35.3% [inhibitor]
O=C(c1ccccc1)c1c[nH]c2cc3c(cc2c1=O)OCCO3	inactive	
O=c1cc(CN2CCCCC2)c2ccccc2o1	inactive	
COc1ccc(NC(=O)c2c(NCc3cccc(F)c3)sc3c2CCC3)c(OC)c1	active: 10.3 µM	
Cc1cc(C)n(-c2cc(N3CCN(C(=O)c4ccccc4C)CC3)ccc2[N+](=O)[O-])n1	inconclusive [inhibitor, single point]	
CCOC(=O)c1cc2c(C)n(-c3ccc(C)cc3)c(C)c2ccc1=O	active: 8.2 µM	
CCOC(=O)CSc1nnc(CNC(=O)c2cccs2)n1CCc1ccccc1		inconclusive: -23.3% [inhibitor]
NC(=O)c1ccc[n+]([C@H]2O[C@@H](COP(=O)([O-])OP(=O)(O)OC[C@H]3O[C@@H](n4cnc5c(N)ncnc54)[C@H](O)[C@@H]3O)[C@H](O)[C@@H]2O)c1	inconclusive [inhibitor, single point]	
O=S(=O)(NCc1ccccc1)c1ccc(S(=O)(=O)N2CCCC2)cc1	inactive	
O=C(CC1C[C@H](C(=O)N2CCOCC2)[C@@]2(CCC3CCCC3)c3[nH]c4ccccc4c3CCN2C1=O)NCc1cccc(C(F)(F)F)c1 (some centres undefined)	inconclusive [inhibitor, single point]	
COC(=O)[C@]1(CC(C)C)N[C@H](c2ccc(-c3ccccc3)cc2)[C@@H]2C(=O)N(C)C(=O)[C@@H]21	inconclusive [inhibitor, single point]	
O=C(O)c1cc(-c2ccc(/C=C3\NC(=O)N(c4ccccc4)C3=O)o2)ccc1Cl	active: 4.11 µM	
Cc1cc(C(=O)NC2CCCc3c2cnn3-c2ccc(C(C)(C)C)cc2)n[nH]1 (centres undefined)	active: 11.6 µM	
CC(=O)c1c(COC(=O)c2ccc(F)cc2)nc2ccccc2[n+]1[O-]	inactive	
COc1cc(/C=C/CNC[C@H]2O[C@@H](n3ccc(N)nc3=O)[C@H](O)[C@@H]2O)ccc1O	inactive	
O=C(CSc1ncccc1C(=O)O)NCc1ccc(F)cc1		inconclusive: -6.39% [inhibitor]
Cc1sc2ncn(CC(=O)NCC(=O)N3CCN(c4ccccc4F)CC3)c(=O)c2c1C	inactive	
